This is one part of the list. The main result of the screen is listed elsewhere. These columns were measured beside it and carry no call.
What was measured:
Experiment in all cases: Primary Screen for Target Class Profiling of Small Molecule Inhibitors of Methyltransferases
[1] = target: Glycine N-methyltransferase (Homo sapiens) (UniProt Q14749); settings: purified enzyme, MTase-Glo SAH luminescence; measured here: GNMT inhibition; at 40 µM; stronger effect = lower value
Method in brief: (§1)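 Each enzyme was assayed with SAM and its substrate. SAH formation detected by MTase-Glo luminescence; single-point 40 uM screen[…].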

[2] = target: Guanidinoacetate N-methyltransferase (Homo sapiens) (UniProt Q14353); settings: purified enzyme, MTase-Glo SAH luminescence; measured here: GAMT inhibition; at 40 µM; stronger effect = lower value
Method in brief: as §1

[3] = target: Histamine N-methyltransferase (Homo sapiens) (UniProt P50135); settings: purified enzyme, MTase-Glo SAH luminescence; measured here: HNMT inhibition; at 40 µM; stronger effect = lower value
Method in brief: as §1

[4] = target: Nicotinamide N-methyltransferase (Homo sapiens) (UniProt P40261); settings: purified enzyme, MTase-Glo SAH luminescence; measured here: NNMT inhibition; at 40 µM; stronger effect = lower value
Method in brief: as §1

[5] = target: Phenylethanolamine N-methyltransferase (Homo sapiens) (UniProt P11086); settings: purified enzyme, MTase-Glo SAH luminescence; measured here: PNMT inhibition; at 40 µM; stronger effect = lower value
Method in brief: as §1
% is scaled to controls: 0 for no effect and ±100 for the full control effect.

| SMILES | activity change, negative = inhibition [1] | activity change, negative = inhibition [2] | activity change, negative = inhibition [3] | activity change, negative = inhibition [4] | activity change, negative = inhibition [5] |
| --- | --- | --- | --- | --- | --- |
| CC(=O)Nc1cccc(C(=O)NCc2nn(Cc3ccccc3)c3ccccc23)c1 | -0.246% | 2.54% | -0.684% | -5.84% | -0.11% |
| COCCCNC(=O)C1(C)Cn2nc(-c3ccccc3)cc2C(=O)N1c1ccc(C)c(C)c1 (stereo not given) | 2.4% | 4.91% | 0.86% | 5.43% | -4.51% |
| COCc1nc(C2CC(NC(=O)c3nn(C)c4c3CCCC4)C2)cc(=O)[nH]1 (stereo not given) | -2.54% | -2.38% | -0.389% | -3.07% | 0.882% |
| CCC(C)Nc1nc2c(S(=O)(=O)c3ccc(C(C)C)cc3)nnn2c2ccccc12 (stereo not given) | -0.979% | 3.96% | 0.386% | 2.11% | -3.53% |
| CCCCN(CCCC)C(=O)CN1C[C@H](c2ccc3c(c2)OCO3)[C@@H](C(=O)O)[C@@H]1c1ccc(OC)cc1 | -14.5% | -0.16% | 10.5% | -23.8% | -1.94% |
| COc1ccc(CC(=O)N2CCCN(c3cc(-c4ccccc4)[nH]n3)CC2)cc1 | -3.46% | 0.256% | -3.51% | -3.85% | -2.87% |
| O=C(c1ccc2c(=O)nc3c(-c4cccc(F)c4)n[nH]n3c2c1)N1CCN(c2ccccc2)CC1 | -19.8% | 0% | -0.121% | -5.03% | -1.8% |
| O=C(Nc1n[nH]c(Cc2ccccc2)n1)N1CCN(C(=O)c2ccco2)CC1 | -6.37% | -3.28% | -0.885% | -5.37% | 4.17% |
| CCN1CCN(C(=O)Cn2c(=O)oc3cc(S(=O)(=O)NCc4ccccc4)ccc32)CC1 | 1.6% | 1.88% | 2.47% | 6.78% | -0.212% |
| CCCN(C)C(=O)c1c(-c2ccc(F)cc2)noc1[C@H](C)O | -2.13% | 0.541% | 1.55% | 1.35% | 2.69% |
| CCCn1c(=O)c2ccc(C(=O)NC3CCCC3)cc2n2c(=O)n(CC(=O)c3ccc(OCC)cc3)nc12 | 0.707% | 3.02% | -4.16% | 1.39% | -1.76% |
| COc1ccc(C(=O)Cn2nc3n(CC(C)C)c(=O)c4ccc(C(=O)NC(C)C)cc4n3c2=O)cc1 | 5.75% | 0.855% | 9.12% | -0.839% | 5.03% |
| CC(=O)N1Cc2ccccc2CC2(CCCN2Cc2ccccn2)C1 (stereo not given) | -6.99% | -0.623% | 0.533% | -5.02% | 2.81% |
| CN(C)[C@@H]1C[C@H](CO)[C@@H](O)[C@H]1O | -3.35% | -7.42% | -0.167% | -10.7% | -3.77% |
| CCC(C(=O)NCCc1cccs1)n1ccc2cc(S(=O)(=O)N3CCCCC3)ccc21 (stereo not given) | 9.84% | 1.84% | 5.66% | 5.76% | 5.54% |
| CC(C)CCNC(=O)C1(C)Cn2c(cc3ccccc32)C(=O)N1CCC(C)C (stereo not given) | -5.99% | 4.22% | -0.424% | -8.9% | -1.3% |
| CC1(C(=O)NC2CCCCC2)Cn2nc(-c3ccco3)cc2C(=O)N1Cc1ccc2c(c1)OCO2 (stereo not given) | 1.38% | 0% | 3.9% | 2% | -0.88% |
| CC(C)Cn1c(=O)c2ccc(C(=O)NC3CCCC3)cc2n2c(=O)n(Cc3ccc(F)cc3)nc12 | 6.65% | 1.91% | 10.8% | 2.94% | 4.14% |
| Cc1ccccc1Cn1nc2n(C(C)C)c(=O)c3ccc(C(=O)NC4CCCC4)cc3n2c1=O | -1.78% | 4.2% | 4.75% | 2.58% | 2.58% |

— PubChem BioAssay AID1745853 (National Center for Advancing Translational Sciences (NCATS), 2022)
